# According to PMC6919601, “Identification of Plasmodium dipeptidyl aminopeptidase allosteric inhibitors by high throughput screening” (PLoS ONE, 2019):
# Where “and” joins values, the source holds several entries; their conditions need not be identical. Equal values may be shown once. Out of some 110,000 compounds screened, about 230 (0.21%) showed an effect of 50% or more. The list shows a part of the results.
# Target: DPAP1 (Plasmodium falciparum, UniProt Q8IIJ9)
# Assay: primary screen, percent inhibition; read by cleavage of a fluorogenic dipeptide substrate; higher = more effect of the substance
# Design: species or system P. falciparum D10 trophozoite lysates; single well
# 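Further: 30 min substrate incubation versus DMSO and 10 µM JCP410 controls.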
# DPAP1, sequence (Q8IIJ9 whole entry, looked up): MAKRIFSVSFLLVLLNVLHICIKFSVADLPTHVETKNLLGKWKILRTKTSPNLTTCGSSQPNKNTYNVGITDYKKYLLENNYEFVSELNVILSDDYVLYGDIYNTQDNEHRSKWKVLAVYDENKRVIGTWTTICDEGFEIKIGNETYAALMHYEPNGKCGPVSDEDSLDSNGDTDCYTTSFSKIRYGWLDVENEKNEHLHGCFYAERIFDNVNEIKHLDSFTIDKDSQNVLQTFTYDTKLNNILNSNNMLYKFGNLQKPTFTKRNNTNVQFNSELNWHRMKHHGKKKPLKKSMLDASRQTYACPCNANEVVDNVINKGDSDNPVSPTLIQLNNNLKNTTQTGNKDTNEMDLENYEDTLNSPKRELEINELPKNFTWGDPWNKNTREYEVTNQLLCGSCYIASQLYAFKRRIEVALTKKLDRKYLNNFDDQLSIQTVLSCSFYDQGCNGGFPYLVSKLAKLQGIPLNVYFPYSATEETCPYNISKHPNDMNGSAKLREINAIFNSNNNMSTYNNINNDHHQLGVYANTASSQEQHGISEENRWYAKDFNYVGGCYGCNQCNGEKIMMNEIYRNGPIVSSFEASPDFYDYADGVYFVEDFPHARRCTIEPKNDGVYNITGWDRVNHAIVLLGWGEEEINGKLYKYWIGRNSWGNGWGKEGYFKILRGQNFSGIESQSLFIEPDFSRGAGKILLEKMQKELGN
row,Structure (SMILES),% Inhibition @ 10 uM
1,N#CCCN1CCN(S(=O)(=O)c2ccc(S(=O)(=O)NC3CC3)cc2)CC1,3.25%
2,O=S(=O)(Nc1cccc(F)c1)c1ccc(Cl)cc1,-2.63%
3,O=C(NC1CCCc2ccccc21)c1oc(=O)c2ccccc2c1-c1ccccc1 (centres unmarked),1.9%
4,CCOC(=O)C1=C(C)NC(=O)NC1C (centres unmarked),-5.9%
5,Cc1cc(C(=O)Nc2cc(C)n(Cc3ccc(Cl)cc3)n2)no1,-0.591%
6,O=C(CSCc1ccc(F)cc1)NCc1ccc(F)cc1Cl,3.79%
7,CCOc1ccc2noc3c2c1C(=O)c1ccccc1-3,2.94%
8,C=CCC1N(c2ccccc2Cl)C(=O)C2C(C(=O)O)C3C=CC21O3 (centres unmarked),-0.949%
9,COc1ccc(CNc2nc(-c3cccnc3)nn2S(C)(=O)=O)cc1,0.558%
10,CCOC(=O)C1=C(O)/C(=C\c2ccc(F)cc2)N=C1C,-0.292%
11,Cc1cccc(NC(=O)c2cccc(S(=O)(=O)Nc3ccccc3C)c2)c1,-0.0369%
12,CC(C)OCCCNC(=O)CCC(=O)n1ncc2ccc(Cl)cc21,6.7%
13,O=C1Cn2c3c(c4cccc(c42)N1)CN(Cc1ccccc1)CC3,4.37%
14,Cc1ccc(CNS(=O)(=O)c2ccc(CCN3C(=O)c4cccnc4C3=O)cc2)o1,-8.79%
15,O=C(CSc1nc2ccccc2c2nc3ccccc3n12)NCc1ccco1,-2.21%
16,Cc1ccc(-n2ncc(C(=O)N3CCC(C)CC3)c2C2CCN(C(=O)OC(C)(C)C)CC2)cc1,6.68%
17,COc1ccc(N2C(=O)CC(NCC(O)c3ccccc3)C2=O)cc1 (centres unmarked),2.84%
18,CCn1c2ccccc2n2c(SCCOc3ccccc3)nnc12,1.23%
19,CCOC(=O)c1c(C)[nH]c(C)c1S(=O)(=O)NC(CC)CN1CCOCC1 (centres unmarked),-0.342%
20,CCCCO/C(O)=C1\C(C)=NC2=C(C(=O)CCC2)C1c1ccc(O)c(OCC)c1 (centres unmarked),18%
21,CCOc1ccc(C2c3c(oc4ccc(F)cc4c3=O)C(=O)N2c2nc(C)c(C(C)=O)s2)cc1 (centres unmarked),-3.13%

row,Structure (SMILES),% Inhibition @ 10 uM
1,Cc1ccc(-c2onc(C)c2C)cc1S(=O)(=O)NCCc1sccc1C,-5.48%
2,COc1ccccc1C(=O)N1CCC(c2nc(-c3ccc(S(=O)(=O)N4CCCC4)cc3)no2)CC1,2.05%
3,O=C1CC(c2ccccc2C(F)(F)F)c2c(c3ccccc3oc2=O)O1 (centres unmarked),1.32%
4,CCC(C)NC(=O)CCN1C(=O)c2ccccc2C1=O (centres unmarked),-3.78%
5,CC(C)C(NCCC(O)c1ccc(Br)cc1)C(=O)O (centres unmarked),-4.14%
6,COc1ccc(CNC2=NC(=O)CC(C(=O)Nc3cc(C)cc(C)c3)S2)cc1 (centres unmarked),17.2%
7,CSCCC(NC(=O)C1CCC(C)CC1)C(=O)NCCc1ccccc1 (centres unmarked),-2.49%
8,CC12CN(C(=O)c3ccccc3)C3(C#N)CC1CCC23C (centres unmarked),-1.98%
9,Nc1nc(SCC(=O)Nc2ccc(F)cc2)sc1C(=O)Nc1ccc(F)cc1,5.44%
10,CNC(=S)N1N=C(c2cccs2)CC1c1ccc(F)cc1 (centres unmarked),3.86%
11,CNc1cnn(C23CC4CC(CC(C4)C2C(=O)O)C3)c(=O)c1Cl (centres unmarked),5.84%
12,Cc1ccc(NC(=O)C[n+]2ccc3ccccc3c2)c(C)c1,7.84%
13,O=C1CC(c2cccc(Cl)c2Cl)c2cc3c(cc2N1)OCO3 (centres unmarked),-7.48%
14,O=C(O)CCP(=O)(O)CN1CCCCCC1,-7.15%
15,O=C(Nc1ccc(Cl)c(Cl)c1)Nc1cc([N+](=O)[O-])ccc1OC(=O)Nc1ccc(Cl)c(Cl)c1,-0.216%
16,Cc1cccc(-n2ncc3c(NCCc4ccccc4)ncnc32)c1,-2.49%
17,CC(=O)c1ccc(NC(=O)CCN2C(=O)c3ccccc3C2=O)cc1,19.4%
18,Cc1cccc(-n2cc(-c3ccccc3)c3c(NCCN4CCOCC4)ncnc32)c1,-3.4%
19,Cc1nc2nc(NC(=O)c3cccnc3)nn2c(C)c1Cl,0.401%
20,CN1CCn2c1nc(N1CCCCC1)nc2=O,1.25%
21,CC1Nc2nc(NC(=O)c3ccc[n+](C)c3)nc(O)c2N(C(=O)c2ccc[n+](C)c2)C1C (centres unmarked),4.28%

row,Structure (SMILES),% Inhibition @ 10 uM
1,N#CC1=C(N)Oc2nc(S)nc(O)c2C12C(=O)Nc1ccccc12 (centres unmarked),-1.97%
2,COCCNC(=O)Cn1cc(C(=O)c2ccccc2)c2ccccc21,-1.82%
3,O=C(CSc1nc2ccccc2s1)NC1CCCC1,-1.05%
4,N#Cc1ccc(NC(=O)Nc2ccc(Cl)cc2)cc1,2.51%
5,O=C(CN1C(=O)S/C(=C/c2c[nH]c3ccccc23)C1=O)N1CCN(c2ccccc2)CC1,7.33% and -0.519%
6,CCCN1C(=O)c2[nH]nc(-c3cc(C)ccc3O)c2C1c1ccc(O)c(OC)c1 (centres unmarked),0.558%
7,COc1ccc(NC(=O)CCC(=O)Nc2ccc(C)cc2)cc1,-5.92%
8,CCOCCCNC(=O)c1cnn(-c2ccc(OC)cc2)c1C1CCN(C(=O)OC(C)(C)C)CC1,-4.22%
9,C[C@]12CCCCC1CCC1C2CC[C@@]2(C)C1CC[C@@]2(O)CNCCO (some centres unmarked),-4.03%
10,CC(=O)Nc1ccc(CN2CC=C(c3ccc(F)cc3)CC2)cc1,3.15%
11,COc1ccc(Cl)cc1NC(=O)CN(c1ccccc1)S(=O)(=O)c1ccc(C)cc1,2.42%
12,CC(C)C[C@H](NC(=O)c1coc(-c2ccc3c(c2)OCO3)n1)C(=O)NCC#N,-2.35%
13,N#CC1=C(N)OC2=C(C(=O)CC(c3ccccc3)C2)C1c1ccoc1 (centres unmarked),-1.98%
14,Nc1nc(CS(=O)(=O)c2ccc(Cl)cc2)cs1,-0.9%
15,CCN(CC)CCCNC(=O)c1ccc(C(C)(C)C)cc1,-1.82%
16,COc1cc(C2CC(=O)OC3=C2C(=O)CC(C)(C)C3)cc(OC)c1OC (centres unmarked),-0.834%
17,Cn1c(=O)c2c(-c3ccccc3)n(-c3cc(Cl)ccc3O)cc2n(C)c1=O,3.62%
18,CN1CCN(c2c(S(=O)(=O)c3ccc(Cl)cc3)cnc3cc4c(cc23)OCCO4)CC1,-1.2%
19,CN1C(=O)C(Cc2ccc3c(c2)OCO3)C(=O)N(C)C1=O,-1.42%
20,O=C(NC(=S)NCc1ccccc1)C12CC3CC(CC(C3)C1)C2,0.058%
